Experimental findings from US20230137139A1, “BIOSYNTHESIS OF CANNABINOIDS AND C[…]” (priority 2020, published 2023) are described below.

The assay relates to CBCA production. The assay is described as follows: In vivo TS activity assay, Example 4 CBCAS enzymes with and without signal peptides, no pH adjustment. Type of assay: cell-based. As to conditions: strains with (Y) or without (N) N-terminal and C-terminal signal peptides; no pH adjustment at Day 4; S. cerevisiae. The procedure:
An assay to detect TS activity was conducted as follows: each thawed glycerol stock of candidate CBCAS transformants was stamped into a well of YEP+4% dextrose media. Samples were incubated at 30° C. in a shaking incubator for 2 days. A portion of each of the resulting cultures was stamped into a well of YEP+4% galactose+1 mM olivetolic acid (FIG. 1 Structure 6a). Samples were incubated at 20° C. and shaken in a shaking incubator for 4 days. Every 24 hours during those 4 days, 2% galactose and 1 mM olivetolic acid were spiked into the cultures. Sodium citrate buffer adjusted to pH 5.5 was added to each well at a final concentration of 100 mM. Samples were incubated at 20° C. and shaken in a shaking incubator for 2 days. A portion of each of the resulting production cultures was stamped into a well of phosphate buffered saline (PBS). Optical measurements were taken on a plate reader, with absorbance measured at 600 nm and fluorescence at 528 nm with 485 nm excitation. Samples were incubated at 30° C. in a shaking incubator for 2 days. 100% methanol was stamped into the production cultures in half-height deepwell plates. Plates were heat sealed and frozen. Samples were then thawed for 30 min and spun down at 4° C. […] CBCA, THCA, and CBDA production in the samples was quantified via liquid chromatography-mass spectrometry (LC-MS). […]

B1: t861591 (protein)
chain: MAQPPSSAFATCLNDVCGGRSGCVGYPSDILYQINWVDRYNLDINLEPAAVTKPEITEDVAAFIKCASENNVKVQARSGGHSYANHGLGGEDGALVIDLENFQHFSMNWDNWQATIGAGHKLHDVTEKLHDNGGRAISHGTCPGVGLGGHATIGGLGPSSRMWGSCLDHVVEVEVVTADGKIQRASEDENSDLFFALKGAGASFGIITEFVMRTNEEPGDVVEYTFSLTFSRHRDLSPVFEAWQNLISDPDLDRRFGSEFVMHELGAIITGTFFGTEEEFEATGIPDRIPTGKKSIVVNDWLGSVAQQAQDAALWLSDLSTAFTAKSLAFTKDQLLSSESIMDLMDYIDDANRGTLIWFLIFDVTGGRINDVPMNATAYRHRDKVMFCQGYGIGIPTLNGRTREFIEGINSLIRSSVPTNLSTYAGYVDASLESPQDSYWGPNLDALGQVKEDWDPSDLFSNPQSVRPGQKSVVDYFDNRASSNGSEDSSGGSNGGTRDEQGGCWSWRRSGPAFAVFVALFVGFPTPQTSWVQKQNLRDPALDLTDAESPSRTPVVNPNTLTTDTMAKLSRGAPGGKLKMTLGLPVGAVMNCADNSGARNLYIISVKGIGARLNRLPAGGVGDMVMATVKKGKPELRKKVHPAVIVRQSKPWKRFDGVFLYFEDNAGVIVNPKGEMKGSAITGPVGKEAAELWPRIASNSGVVM
modifications: N- and C-terminal signal peptides
B1: the “Average CBCA” value came to 0.00 µg/L.
